Reference: publication PMC5836133
The list shows a part of the results. At the low end of the ranking the order means little.

tested on: T1, GST-NbGlk1(82-244); assay: protein-binding microarray; details: NbGlk1 is a Golden2-like transcription factor of Nicotiana benthamiana; high values mean tight binding; most listed sequences are background and not binding sites; double strand, one strand shown;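 also: rank-based score ranging −0.5 to +0.5 with E above 0.45 taken as significant binding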
T1 sequence: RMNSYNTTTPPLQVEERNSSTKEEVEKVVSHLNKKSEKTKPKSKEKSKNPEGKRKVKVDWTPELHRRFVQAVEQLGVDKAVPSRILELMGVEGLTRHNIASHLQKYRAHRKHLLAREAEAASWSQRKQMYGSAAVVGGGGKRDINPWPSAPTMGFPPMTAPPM

Sequence	binding signal [E-score]
AGCGACAG	-0.0398
ATTCTGTA	0.271
AAACGTAA	0.0718
ACCCGATG	-0.186
AGATTTGG	0.394
AGGGATAC	0.168
AGGTTGAT	-0.0415
CACCGTCG	-0.212
AGGCACGC	-0.11
ACATTTCA	0.0402
CACCGTAA	0.122
AACAGGGA	-0.155
ATGGTTTA	0.0425
ACGGTAGG	-0.0738
AAGCATCG	-0.0212
CAGCACGA	-0.0353
CACAGAAG	-0.0289
AGATTCAG	0.238
AGAGTTTG	4.26e-06
AATAGCAC	-0.105
AAGCCATG	-0.164
ACCAGCAA	0.0679

Sequence	binding signal [E-score]
ATGGTTCG	-0.0962
ATATGCGC	0.177
ACATACAA	0.181
AGGCAGCG	-0.197
AAAGTCCT	-0.264
AAGCAGAA	0.118
AATCTCCA	0.389
AATTCCAG	0.0413
AATGGCGC	-0.0578
ACGGTCCA	-0.177
ATGCGAAA	0.16
AAGACGTG	-0.0718
AAGGTTCA	-0.0932
CACGCCCG	-0.144
AGGTATGG	-0.149
AGTCCCAA	-0.0799
ACGGATCC	0.198
AGACCTCA	-0.294
ACTTATCT	0.152
ACTCCACT	-0.177
AGTTCTCG	-0.206
ATGTGCCC	-0.132

Sequence	binding signal [E-score]
CAAGGCGA	-0.129
ACCCGCTG	-0.182
ATCGTCCG	0.147
CACACCTC	-0.0197
AGATAAGG	0.0581
ACCCGAAT	0.17
CAGATCTG	0.38
AAAATTGC	0.104
AACAAGCG	-0.0394
ATCCAGTG	0.221
CAAGTGTC	-0.139
AGTAAACA	-0.143
ACCCCAAA	-0.099
ACCCTATA	0.0308
ATGGCTGA	-0.117
AAGTAGCA	-0.0251
ACAGCAGT	-0.25
ATGCACCA	0.0187
ACTCGGCT	-0.11
AAACATAT	0.113
AAATTACG	0.317
ACACCAAT	-0.00147

Sequence	binding signal [E-score]
AATCGTGG	0.286
ACTTGCTG	-0.039
ATCCACAG	0.192
ACTTAAGG	-0.122
AGAATACA	0.0913
AAATCGTC	0.354
AAAGGTCC	-0.27
ACAAAGTG	-0.0272
ACCTGTAG	-0.101
AACCTATA	-0.0739
AATTGCCT	-0.0441
AATTGGGC	-0.189
AGAGTTGA	-0.161
AAGGGTAA	-0.0144
AAAACCTT	0.0251
AAAATTCT	0.195
AGTGCTGG	-0.0693
AGAAGCTG	-0.0242
AAAAAAGG	-0.0292
ACTCTCTG	-0.1
ATGCACTG	-0.0208
ACGTACCT	-0.12

Sequence	binding signal [E-score]
AGTTCCCG	-0.186
AATTACAT	0.173
ACGGGACT	-0.201
AGCGTAGC	-0.195
AGTAAAAC	0.0902
ATATAGAG	0.231
ACGAGATA	0.275
ACGCCACT	-0.206
ATTCGACC	-0.089
CAGCGCGC	-0.109
ACTTTAGG	-0.11
AGGTGGCA	-0.233
AGCAGCCA	-0.165
CACTTTGC	-0.101
AGCCCGTG	-0.182
CAAGCATG	-0.158
ACCACCTG	-0.183
AGTTTGAC	-0.0264
ACACAAAT	0.204
ACTTACCA	0.00853
ACACGCGG	-0.222
AATCGGGG	0.327
